Paper PMC4336329 (PLoS ONE, 2015)
In all, about 310,000 compounds went through this assay and about 14,000 (4.5%) showed an effect of 50% or more. The effect is printed as a negative number. Some of the results follow.

molecular target: human ether-à-go-go-related gene (hERG) potassium channel (human, UniProt Q12809); assay: primary screen, population patch clamp on CHO cells stably expressing hERG
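Note: peak tail current of the secondary pulse compared with the same well before compound.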

Sequence of human ether-à-go-go-related gene (hERG) potassium channel (Q12809 whole entry, looked up): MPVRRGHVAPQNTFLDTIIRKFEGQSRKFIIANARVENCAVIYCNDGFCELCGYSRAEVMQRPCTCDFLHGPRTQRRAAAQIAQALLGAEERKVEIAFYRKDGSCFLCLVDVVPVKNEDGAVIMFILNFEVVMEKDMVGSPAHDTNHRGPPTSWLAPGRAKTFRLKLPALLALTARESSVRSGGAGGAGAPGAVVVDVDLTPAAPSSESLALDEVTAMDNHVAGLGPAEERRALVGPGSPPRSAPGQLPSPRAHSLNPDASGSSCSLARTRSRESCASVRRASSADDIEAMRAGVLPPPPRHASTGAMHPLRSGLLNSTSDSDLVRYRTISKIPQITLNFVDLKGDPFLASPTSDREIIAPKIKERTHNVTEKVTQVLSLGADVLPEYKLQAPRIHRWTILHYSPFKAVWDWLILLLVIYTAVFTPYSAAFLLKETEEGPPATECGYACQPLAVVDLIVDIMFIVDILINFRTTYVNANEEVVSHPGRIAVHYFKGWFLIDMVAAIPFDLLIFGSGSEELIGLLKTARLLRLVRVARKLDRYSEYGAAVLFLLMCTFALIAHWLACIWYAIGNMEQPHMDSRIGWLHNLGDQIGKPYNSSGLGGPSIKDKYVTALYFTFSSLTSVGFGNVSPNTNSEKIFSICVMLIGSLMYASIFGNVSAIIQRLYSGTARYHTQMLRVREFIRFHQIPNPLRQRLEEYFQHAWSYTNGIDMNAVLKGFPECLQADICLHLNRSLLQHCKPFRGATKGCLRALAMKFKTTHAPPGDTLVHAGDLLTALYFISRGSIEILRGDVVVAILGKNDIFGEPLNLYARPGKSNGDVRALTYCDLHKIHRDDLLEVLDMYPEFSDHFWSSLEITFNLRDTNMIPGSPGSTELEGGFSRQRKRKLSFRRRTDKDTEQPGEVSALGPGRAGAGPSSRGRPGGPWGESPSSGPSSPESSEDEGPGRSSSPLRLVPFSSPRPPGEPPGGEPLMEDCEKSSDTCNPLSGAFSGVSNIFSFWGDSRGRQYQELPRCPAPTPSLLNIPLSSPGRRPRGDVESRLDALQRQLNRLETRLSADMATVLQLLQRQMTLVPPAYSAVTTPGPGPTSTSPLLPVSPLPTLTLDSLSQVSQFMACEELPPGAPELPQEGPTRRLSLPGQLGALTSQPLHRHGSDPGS

Row | SMILES | hERG current change (%, negative = inhibition) at 10uM
1 | O=C(N/N=C/c1cc([N+](=O)[O-])ccc1Cl)c1cnccn1 | 10.2%
2 | O=C(Nc1ccc(-c2nnc3n2CCCCC3)cc1)c1ccco1 | 5.26%
3 | COCc1c(Br)c(C)nc(OCC(=O)N/N=C/c2ccco2)c1C#N | -19.4%
4 | Cc1nc(NC(=O)CCCC(=O)Nc2nc(C)c(C)s2)sc1C | -1.66%
5 | CC(NC(=O)c1cccc(S(=O)(=O)N2CCCCCC2)c1)c1ccccc1 (stereo not shown) | -58.2%
6 | Cc1noc(C)c1C(=O)Nc1nc(-c2cccs2)cs1 | -56.9%
7 | COc1cccc(/C=N/NC(=S)NC2CC3CCC2C3)c1OC (stereo not shown) | 14.4%
8 | Cc1c(C(=O)O)oc2ccc(S(=O)(=O)NCc3ccccc3)cc12 | 0.477%
9 | COC(=O)c1cc(OC)c(OC)cc1NC(=O)CN1CCCCC1 | -2.84%
10 | COc1c(C)cccc1C(=O)Nc1ccc(N2CCN(S(C)(=O)=O)CC2)cc1 | 5.12%
11 | CC(C)C[C@H](NC(=O)c1[nH]cnc1C(=O)N[C@H](C)c1ccccc1)C(=O)OC(C)(C)C | -4.32%
12 | O=C(Cn1c(=O)c2cccn2c2cccnc21)N1CCN(c2ccccc2F)CC1 | 1.79%
13 | CSCC[C@H](NC(=O)Cc1c(C)c2cc3c4c(oc3cc2oc1=O)CCCC4)C(=O)O | 11.4%
14 | O=[N+]([O-])c1ccc(N2CCCCCC2)c(S(=O)(=O)N2CCCCC2)c1 | -6.85%
15 | O=C(/C=C\Nc1ccccn1)c1ccc(Cl)cc1 | 5.83%
16 | Cc1cc(C)c(NC(=O)CNC(=O)COC(=O)CNC(=O)c2ccc(Cl)cc2Cl)c(C)c1 | 13.3%
17 | CN(C)c1ccnc(Oc2ccc(Cl)cc2)c1C#N | -2.31%
18 | COc1ccc(COC(=O)C2=C(C)NC(=O)NC2c2ccc(OC)cc2)cc1 (stereo not shown) | 14.4%
19 | Cc1ccc(S(=O)(=O)NC2(C(=O)O)CCCCC2)cc1 | 4.84%
20 | O=C(O)c1cccc(NC(=S)NCc2ccccc2)c1 | 18.8%
21 | Cc1ccc(S(=O)(=O)N2CCC3(CC2)OCCO3)cc1 | 7.41%
22 | COc1ccc(/C=N\NC(=O)C2=NNC(=O)C2C)cc1 (stereo not shown) | 9.52%

Row | SMILES | hERG current change (%, negative = inhibition) at 10uM
23 | COc1ccccc1C(=O)N(CN1CCCC1=O)c1cccc(Cl)c1 | -9.61%
24 | O=C(N=C1SC2CS(=O)(=O)CC2N1c1ccc(F)cc1)C1CCCCC1 (stereo not shown) | 10.1%
25 | O=C(N/N=C/c1ccc(Cl)s1)c1ccccc1[N+](=O)[O-] | -4.42%
26 | O=C(COC(=O)c1cc(-c2ccc(Cl)s2)nc2ccccc12)NCc1ccco1 | -7.28%
27 | CCOC(=O)NN1C(=O)c2ccccc2NC1(C)C | 4.93%
28 | COc1ccc(/C=C2\CCC(C3CCCC3)C2=O)cc1OC (stereo not shown) | 13.2%
29 | CC(NC(=O)c1ccccc1Cl)NC(=O)c1ccccc1Cl | 6.85%
30 | O=C(CSc1nnc(Nc2ccccc2)s1)NCc1cccs1 | 22%
31 | C/C(N)=C(/C#N)C(=O)CSc1nnc(-c2ccccc2)n1C | 13.1%
32 | Cc1ccc(-c2nnc(NCCCO)c3ccccc23)cc1 | -38.5%
33 | CC(C)Cn1c2c(c(O)c(C(=O)Nc3nc4ccccc4s3)c1=O)CCCC2 | 8.7%
34 | Cc1ccc2oc(=O)c3cc(C(=O)NCCCN4C(C)CCCC4C)sc3c2c1 (stereo not shown) | -61.6%
35 | CCc1ccc(NC(=O)Cn2c3[n+](c4c(F)c(F)ccc42)CCCCC3)cc1.[I-] | 11.4%
36 | CC(=O)Nc1ccc(NC(=O)CN2C(=O)COc3ccc(S(=O)(=O)N4CCCCC4)cc32)cc1 | 0.668%
37 | O=C(NCCCN1CCCC1=O)c1cccc(S(=O)(=O)N2CCCCC2)c1 | -5.62%
38 | O=C(CC1OC(=O)c2ccccc21)Nc1cccc(S(=O)(=O)N2CCCCCC2)c1 (stereo not shown) | -48%
39 | O=C(NCCOc1ccccc1)C1CCC(=O)N(CCCN2CCOCC2)C1 (stereo not shown) | 12.7%
40 | COc1ccc(CN(C(=O)c2snc(C(N)=O)c2N)C(C(=O)NC2CCCC2)c2cc(OC)ccc2OC)cc1 (stereo not shown) | -3.67%
41 | COc1ccc(OC(=O)COc2ccccc2C)cc1 | 5.55%
42 | Cc1ccc(-c2nn(CCC#N)cc2C=C(C#N)C#N)cc1 | 7.08%
43 | CCN1C(=O)CSc2ccc(C(=O)NCc3ccc(OC)cc3)cc21 | -4.81%
44 | CCc1ccc(-c2nn(-c3ccccc3)cc2C2SCC(=O)N2Cc2ccco2)cc1 (stereo not shown) | 16.5%

Row | SMILES | hERG current change (%, negative = inhibition) at 10uM
45 | CCNS(=O)(=O)c1ccc(NC(=O)Cn2nc(C(F)(F)F)cc2C)cc1 | -0.324%
46 | CN1CCN(Cc2ccc(Sc3ccc(Cl)cc3)c([N+](=O)[O-])c2)CC1 | -80.4%
47 | CC(=O)Nc1c(C)cc(S(C)(=O)=O)cc1C | 14.5%
48 | COc1ccc(CNC(=O)C/C(C)=N/NC(=O)C(c2ccccc2)c2ccccc2)cc1 | -29.3%
49 | O=C(CC1OC(=O)c2ccccc21)NNC(=O)c1ccc(F)cc1 (stereo not shown) | -25.1%
50 | Cc1cccc(OS(=O)(=O)NC(=O)OCC2CCCN3CCCCC23)c1 (stereo not shown) | 15.1%
51 | CN1CCN(c2nc(N)cc(=O)[nH]2)CC1 | 15.2%
52 | COC(=O)CC(=O)CSc1nc(C)cc(C)c1C#N | 22.9%
53 | COc1ccc([N+](=O)[O-])cc1NC(=O)Cc1ccccc1Cl | 5.67%
54 | CC1CCN(S(=O)(=O)c2cccc(C(=O)Nc3ccccn3)c2)CC1 | -22.1%
55 | CCOc1ccc2[nH]c(=O)c(CN(Cc3cccnc3)C(=O)Nc3ccccc3OC)cc2c1 | -6.63%
56 | COc1cccc(N(CC(=O)Nc2cccc(C(C)=O)c2)S(C)(=O)=O)c1 | -5.01%
57 | C=CCn1c(COc2ccc(CC)cc2)nnc1SC/C(O)=C(\C#N)c1nc2ccccc2[nH]1 | 2.23%
58 | CCOc1ccc(S(=O)(=O)N(CC)CC(=O)N2CCCC2)cc1C | -6.28%
59 | O=C(c1ccc2oc(CCCc3ccccc3)nc2c1)N1CCCC(CCCO)C1 (stereo not shown) | -32.2%
60 | O=C(C1CCN(S(=O)(=O)c2ccc(Br)s2)CC1)N1CCN(c2ccccc2)CC1 | -10.5%
61 | CCCCCC(=O)N1CCCCC1 | 4.42%
62 | COc1ccc(NC(=O)C2CCCN(S(C)(=O)=O)C2)c(OC)c1 (stereo not shown) | 18.3%
63 | CCN(CC)CCCN1C(=O)C(O)=C(C(=O)c2sc(C)nc2C)C1c1ccco1 (stereo not shown) | -0.605%
64 | COc1ccccc1OCCNC(=O)c1ccc(C)c(S(=O)(=O)N2CCOCC2)c1 | -16.6%
65 | Cc1ccc2c(CNCc3ccccc3)cc(=O)oc2c1 | 0.879%
66 | CC(=O)c1c(C)nc2ccc(C)cc2c1-c1ccccc1 | -9.78%

Row | SMILES | hERG current change (%, negative = inhibition) at 10uM
67 | COc1ccc(-n2c(CCc3ccccc3)nnc2SCC(=O)NCc2ccccc2)cc1 | -47.3%
68 | COc1cc(/C=N/N2CCOCC2)ccc1OC(=O)c1ccco1 | 40%
69 | CC(Nc1nc(N2CCOCC2)nc2ccccc12)c1ccccc1 (stereo not shown) | -73.8%
70 | COc1ccc(C(=O)N2CCN(Cc3ccc(OC)c(OC)c3)CC2)cc1.O=C(O)C(=O)O | 0.702%
71 | O=S(=O)(c1ccc(F)c(F)c1)N1CCN(S(=O)(=O)c2cccs2)CC1 | 1.29%
72 | COc1cccc(NC(=O)c2ccc3nsnc3c2)c1 | 5.78%
73 | NC(=O)NCC(c1ccccc1)C1CCCCC1 (stereo not shown) | 19.5%
74 | O=C(c1ccccc1NS(=O)(=O)c1cccs1)N1CCOCC1 | 15.3%
75 | CCOC(=O)c1ccc(Cn2cnc3ccccc3c2=O)cc1 | -9.65%
76 | Cc1ccnc(NC(c2ccncc2)c2c(C)[nH]c3ccccc23)c1 (stereo not shown) | -7.02%
77 | c1ccc(CCNc2nc3ccccc3n3nnnc23)cc1 | 1.71%
78 | O=C(CN1CCN(c2ccccc2)CC1)Nc1scc2c1c(=O)oc1ccccc12 | 16.1%
79 | CC(C)N(C)C1CCN(C(=O)Nc2ccc(Cl)c(Cl)c2)CC1 | -40.9%
80 | C=CCc1c(OC(C)=O)c2ccccc2n(C)c1=O | -4.29%
81 | COc1ccc(C)cc1N(CC(=O)NCCSCc1ccco1)S(=O)(=O)c1ccc(C)cc1 | -11.3%
82 | Nc1cncc(C(=O)O)c1 [24817409] | 15.7%
83 | COc1cc(OC)c(S(=O)(=O)Nc2ccc(C(=O)O)cc2)cc1S(=O)(=O)Nc1ccc(C(=O)O)cc1 | 10.7%
84 | Cc1ccc(-n2nc(C(=O)N3CCN(C)CC3)c3c4ccccc4n(C)c3c2=O)cc1 | 5.61%
85 | CN(C(=O)COC(=O)C1COc2ccccc2O1)C1(C#N)CCCCC1 (stereo not shown) | -8.44%
86 | O=C(NC(=S)Nc1ccccc1N1CCCCC1)c1ccc(F)cc1Cl | 20.7%
87 | COc1ccccc1CN1CCN(C(=O)COc2cccc(C)c2)CC1.O=C(O)C(=O)O | -20.2%
88 | COC(=O)Cc1c(O)ccn(CCc2ccc(OC)c(OC)c2)c1=O | 16.9%
